Among the data in PubChem BioAssay AID1645887 (National Center for Advancing Translational Sciences (NCATS), 2021) are activation values, retold here.

Structures are written as SMILES. Where “and” joins values, the source holds several entries; their conditions need not be identical. Identical values can stand only once. The campaign covered roughly 16,000 compounds. About 40 (0.2%) were called active. About 1% were inconclusive and are not listed. Calls come from the whole dose curve; as a rule, active = well fitted activation curve with a large enough effect; inconclusive = small, poorly fitted or top-dose-only effect, or another doubt; inactive = no such curve, though single readings can be large or run the other way. The list shows a part of the results.
% is set by controls: 0 for no effect and ±100 for the full control effect.

Sequence of UniProt Q8WZA2 (Q8WZA2 whole entry, looked up): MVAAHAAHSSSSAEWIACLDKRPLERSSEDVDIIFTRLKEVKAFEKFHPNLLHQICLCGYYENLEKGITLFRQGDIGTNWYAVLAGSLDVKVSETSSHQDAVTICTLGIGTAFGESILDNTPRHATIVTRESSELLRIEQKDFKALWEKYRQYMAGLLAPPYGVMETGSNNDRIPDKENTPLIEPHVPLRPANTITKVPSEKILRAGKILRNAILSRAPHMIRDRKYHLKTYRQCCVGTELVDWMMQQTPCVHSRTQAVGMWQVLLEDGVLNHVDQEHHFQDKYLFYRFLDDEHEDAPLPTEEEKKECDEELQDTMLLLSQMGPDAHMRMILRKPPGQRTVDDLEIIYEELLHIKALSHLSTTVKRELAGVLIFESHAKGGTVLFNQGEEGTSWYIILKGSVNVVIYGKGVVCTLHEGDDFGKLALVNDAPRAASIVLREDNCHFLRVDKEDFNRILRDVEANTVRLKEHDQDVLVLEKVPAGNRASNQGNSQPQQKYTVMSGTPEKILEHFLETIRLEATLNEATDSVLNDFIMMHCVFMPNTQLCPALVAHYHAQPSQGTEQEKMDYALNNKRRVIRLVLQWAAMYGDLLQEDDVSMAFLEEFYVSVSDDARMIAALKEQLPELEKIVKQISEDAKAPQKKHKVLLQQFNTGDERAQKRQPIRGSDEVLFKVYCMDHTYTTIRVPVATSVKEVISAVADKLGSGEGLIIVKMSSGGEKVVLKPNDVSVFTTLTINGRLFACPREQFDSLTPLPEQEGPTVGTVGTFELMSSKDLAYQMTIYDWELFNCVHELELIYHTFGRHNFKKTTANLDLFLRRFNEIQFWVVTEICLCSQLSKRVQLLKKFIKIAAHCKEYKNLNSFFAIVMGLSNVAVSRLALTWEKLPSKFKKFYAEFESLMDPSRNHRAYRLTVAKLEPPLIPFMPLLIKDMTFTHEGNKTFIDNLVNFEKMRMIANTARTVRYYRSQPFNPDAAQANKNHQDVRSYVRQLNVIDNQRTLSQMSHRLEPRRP

This assay concerns the target Rap guanine nucleotide exchange factor 4 (Homo sapiens) (UniProt Q8WZA2). The experiment in a line: Validation qHTS for agonist of cAMP-regulated guanine nucleotide exchange factor 4 (EPAC2).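 Note: exchange makes BODIPY-GDP fluorescence drop when released from Rap1B; series mostly up to about 150 µM.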 To be noted: EPAC2 Rap1B BODIPY-GDP exchange, fluorescence; activation: hits give high values. The method in brief:
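Signal normalized against 6.5 mM cAMP as agonist control. Mix of EPAC2 (100 nM), RAP1B-BODIPY-GDP (250 nM) and GDP (50 uM) was read kinetically at 480/540 nm, every 5 min over 30 min, after 5 min room-temperature incubation with compound.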
For orientation: qHTS replaces the single test concentration by a dilution series.
In the case of `O=C(C1CCOC1)N1CCOc2ccc(CN3CCC(Oc4cccnc4)CC3)cc2C1` (stereo unspecified), the activation was inactive: -18.9%.

Consider `CCCSS/C(CCO)=C(\C)N(C=O)Cc1cnc(C)nc1N`, for which the activation is inactive: 8.63%.

Turning to `COc1cc(CC(=O)O)ccc1O`, the activation is inactive: 12.1% and inactive: -55.9%.

Take `O=C(c1cccc(F)c1)N1CCC2(CC1)CCN(c1ccc(-c3ccccc3)cc1)CC2`: the activation is inactive: 1.94%.

With `O=c1[nH]c2cc(Cl)ccc2c(O)c1-c1ccc(Oc2ccccc2)cc1`, the activation is inactive: -23.5%.

On to `O=C(c1cccc(F)c1)N1CCC2(CCN(Cc3cc(C(F)(F)F)cc(C(F)(F)F)c3)CC2)CC1`, for which the activation is inactive: -23%.

On to `COc1c(OC)c2occc2c2oc(=O)ccc12`, for which the activation is inactive: -6.36%.

As to `N#C/C(=C\c1cc(Cl)cc(Cl)c1)c1cccnc1`, the activation is inactive: -3.87% and inactive: -17.4%.

Consider `COc1ccccc1N1CCN(C[C@@H](C(=O)NC(C)(C)C)c2ccccc2)CC1`, for which the activation was inactive: -11.1%.

As to `CCOC(=O)c1ccc(OC(=O)CCCCCN=C(N)N)cc1`, the activation is inactive: -14.8% and inactive: -27%.

Turning to `CCCC(C(=O)OCCN(CC)CC)(c1ccccc1)c1ccccc1`, the activation is inactive: -3.61% and inactive: -13.2%.

Turning to `CN(C)c1ncc2nc(-c3cccs3)c(=O)n(CCc3ccccc3)c2n1`, the activation was inactive: 6.09%.

With `CC(=O)CCC(=O)N1CCC(n2c(C3CCCO3)nc3cc(C(F)(F)F)ccc32)CC1` (stereo unspecified), the activation is inactive: -8.43%.

With `CN1CCC[C@H]1c1cccnc1`, the activation is inactive: -1.82% [middle of 4 runs].

As for `O=c1c(-c2cc(F)cc(F)c2)nc2cnc(Oc3ccccc3)nc2n1C[C@H]1CCCO1`, the activation is inactive: -10.1%.

For the compound `COCCn1c(=O)c(-c2ccc(Cl)cc2)nc2cnc(Oc3ccccc3)nc21`, the activation is inactive: 5.43%.

As to `Cc1cnc(-n2ncc(C(=O)NCCN3CCOCC3)c2C2CC2)nc1-c1cccs1`, the activation was inactive: 7.53%.

For `COc1ccc(-n2c(=O)c(-c3ccc(Cl)cc3)nc3cnc(N(C)C)nc32)cc1`, the activation is inactive: -5.08%.

`CC1(C)CC[C@]2(C(=O)O)C(O)C[C@@]3(C)C(=CCC4[C@@]5(C)CCC(O)C(C)(C)C5CC[C@@]43C)C2C1` (stereo partly specified): the activation is inactive: -5.3%.

In the case of `CN1CCCC2(CCN(C(=O)c3cccn3C)CC2)C1`, the activation is inactive: -2.14%.

For `O=C(/C=C/c1ccc(O)c(O)c1)O[C@@H]1C[C@@](OC(=O)/C=C/c2ccc(O)c(O)c2)(C(=O)O)C[C@@H](O)[C@@H]1O`, the activation is inactive: -31.8%.

In the case of `CC(C)=CCC/C(C)=C/C=C/C(C)=C/C=C/C(C)=C/C=C/C=C(C)/C=C/C=C(C)/C=C/C=C(\C)CCC=C(C)C`, the activation was inactive: -31.9%.

`CC1=C(/C=C/C(C)=C/C=C/C(C)=C/C(=O)O)C(C)(C)CCC1`: the activation is inactive: -8.08% [middle of 4 runs].

With `CN1CCN(c2ncc3nc(-c4ccccc4)c(=O)n(Cc4cccs4)c3n2)CC1`, the activation is inactive: -3.37%.

Take `NC[C@@H]1CC[C@@H](N)[C@@H](O[C@H]2[C@H](O)[C@@H](O[C@H]3O[C@H](CO)[C@@H](O)[C@H](N)[C@H]3O)[C@H](N)C[C@@H]2N)O1`: the activation is inactive: -7.23%.

Consider `COCCn1c(=O)c(-c2ccc(OC)cc2)nc2cnc(Nc3cccc(OC)c3)nc21`, for which the activation is inactive: -2.72%.

With `Cc1noc(C)c1C(=O)N1CCC2(CC1)CCN(C(c1ccccc1)c1ccccc1)CC2`, the activation is inactive: -7.8%.

`CNC(=O)CN(CCN(CCN(CC(=O)[O-])CC(=O)NC)CC(=O)[O-])CC(=O)[O-].O.[Gd+3]`: the activation is inactive: 0.276% and inactive: -10.5%.

Turning to `CC(=O)OC1CC2C(C)(C)C(=O)C3OC3[C@]2(C)C2CC[C@@]3(C)C(c4ccoc4)OC(=O)C4OC43[C@]12C` (stereo partly specified), the activation was inactive: -12%.

Turning to `Cn1cc(C(F)(F)F)nc1-c1ccc(OC[C@@H](O)CNCCOc2ccc(O)c(C(N)=O)c2)cc1`, the activation was inactive: -10.7%.

`COC(=O)/C=C/c1ccc2c(c1)S(=O)(=O)N(C1CCCC1)[C@H]2CC(=O)OC`: the activation was inactive: -20.2%.

On to `CCCCCC#CCC#CCC#CCC#CCCCC(=O)O`, for which the activation is inactive: 1.63% and inactive: -0.659%.

In the case of `CC1=C(C(=O)O)N2C(=O)C(NC(=O)C(N)c3ccc(O)cc3)C2SC1` (stereo unspecified), the activation was inactive: -25.2%.

As to `CN(C)c1ccc(-c2cncnc2NCc2cccnc2)cc1`, the activation is inactive: 4.29%.

On to `COc1cccc(N2[C@@H](CC(C)=O)c3cc(C(F)(F)F)ccc3S2(=O)=O)c1`, for which the activation is inactive: -7.6%.

In the case of `CC(O)C(O)[C@H]1CNc2nc(N)[nH]c(=O)c2N1` (stereo partly specified), the activation is inactive: -16.3%.

Take `CNS(=O)(=O)CCc1ccc2[nH]cc(C3CCN(C)CC3)c2c1`: the activation was inactive: -3.74%.

Turning to `O=c1c(-c2ccccc2)nc2cncnc2n1C1CC1`, the activation was inactive: -18.5%.

Consider `CC(=O)Oc1ccccc1C(=O)O`, for which the activation was inactive: -7.43% and inactive: -1.21% and inactive: -9.5%.

On to `O=C(c1ccco1)N1CCC[C@@]2(CCN(c3ccccc3)C2)C1`, for which the activation is inactive: -1.57%.

As to `O=C(O)[C@H]1NCCC[C@H]1C(=O)O`, the activation is inactive: -12.3%.

In the case of `c1ccc2c(-n3ccnc3)nc(-c3ccoc3)nc2c1`, the activation was inactive: -8.81%.

Turning to `COCC(=O)Nc1cc(C(=O)N[C@H]2CCCCNC2=O)c2c(c1)nc(-c1ccncc1)n2C`, the activation is inactive: 4.22%.

In the case of `NCCC(=O)[N-][C@@H](Cc1cnc[nH]1)C(=O)O.[Zn]`, the activation is inactive: 8.37%.

Consider `COc1cc(Cl)c(CN2CCOc3ccc(CN4CCCCC4CO)cc3C2)cc1OC` (stereo unspecified), for which the activation was inactive: -0.332%.

Consider `Cc1cc(C(=O)NCC2Cc3cccc(-c4cncnc4)c3O2)c(C)o1` (stereo unspecified), for which the activation is inactive: 7.7%.

For `NCCCCN=C(N)N`, the activation was inactive: -11.5% [middle of 5 runs].

As to `O=c1c(-c2ccc(F)c(F)c2)nc2cncnc2n1Cc1ccc(F)cc1`, the activation is inactive: -34.5%.

On to `Cc1cccc(CNc2nc(-c3ccoc3)nc3ccccc23)c1`, for which the activation is inactive: -15.5%.

Consider `OCCN1CCN(Cc2ccc3c(c2)CN(Cc2ccc4ccccc4c2)CCO3)CC1`, for which the activation is inactive: -9.14%.

As to `CC1(C)S[C@@H]2[C@H](NC(=O)[C@@H](NC(=O)N3CCNC3=O)c3ccccc3)C(=O)N2[C@H]1C(=O)O`, the activation is inactive: -11.5%.
